According to PubChem BioAssay AID1745845 (National Center for Advancing Translational Sciences (NCATS), 2022):
Values joined by “and” are separate entries in the source; they are usually repeats but may differ in a detail not shown here. Equal values may be shown once. Hit rate of the full screen: of about 360,000 compounds, about 2,600 (0.72%) were called active. This list was built around the results that the source calls inconclusive (neither active nor inactive); the mix of calls is not that of the screen. The call rests on the fitted dose curve; in most records, active means well fitted inhibition curve with a large enough effect; inconclusive means small, poorly fitted or top-dose-only effect; inactive means no such curve, though single readings can be large or run the other way. A potency beside an inconclusive call is a rough fit, not a confirmed value.

Assay: Primary qHTS for Inhibitors of ATXN expression; further: nearly all actives have a fitted effect of over 55% in size
Details: HEK-293 ATXN2-luciferase reporter, luminescence, 24 h; activity change, negative = inhibition: at 57 µM (top of the series)
In short: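 ATXN2-luciferase reporter cells (luciferase flanked by upstream and downstream ATXN2 gene portions) were treated 24 h at 37 °C with compounds at up to 57 uM. SteadyGlo luminescence gave expression; GF-AFC fluorescence gave viability.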
On the % scale 0 is the no-effect control and ±100 the full control effect; potency means the concentration at half of the fitted maximal effect; tags describe the fitted curve by direction and shape.

| SMILES | Potency | activity change, negative = inhibition |
| --- | --- | --- |
| Cc1sc2ncnc(N3CCN(S(=O)(=O)c4ccc(C(C)(C)C)cc4)CC3)c2c1C | inconclusive: 28.2 µM [inhibitor, partial curve, poor fit] | – |
| N#Cc1cn(-c2cccc(C(F)(F)F)c2)c(=O)[nH]c1=O | – | inactive: 4.98% |
| CC(=O)NC(c1cccs1)c1cc([N+](=O)[O-])c2cccnc2c1O (stereo unspecified) | active: 12.6 µM | – |
| O=C(Nc1ccc(S(=O)(=O)N2CCOCC2)cc1)c1ccc(CN2CCc3ccccc3C2)cc1 | inconclusive: 10 µM [inhibitor, partial curve] | – |
| Cc1cccc2nc(-c3ccccn3)c(Nc3ccc(F)cc3)n12 | active: 17.8 µM | – |
| Cc1ccc(NS(=O)(=O)c2ccc(NC(=O)CN(c3cc([N+](=O)[O-])ccc3C)S(C)(=O)=O)cc2)c(C)c1 | inconclusive: 39.8 µM [inhibitor, single point] | – |
| CCOC(=O)CSc1nc2c(c(=O)[nH]c(=O)n2C)n1C/C=C(/C)Cl | – | inactive: -10.8% |
| O=C(CN1CCN(c2ccccc2O)CC1)Nc1cc(S(=O)(=O)N2CCCC2)ccc1Cl | inconclusive: 17.8 µM [inhibitor, partial curve, poor fit] | – |
| Cc1cc(C)cc(N2C(=O)CSC23C(=O)N(Cc2c(F)cccc2Cl)c2ccccc23)c1 (stereo unspecified) | inconclusive: 39.8 µM [inhibitor, single point] | – |
| CN(Cc1cccc(Cl)c1Cl)C(=O)c1ccccc1SCC(=O)N1CCCC1 | inconclusive: 20 µM [inhibitor, single point] | – |
| Cc1ccc2nc(SCc3nc(-c4ccc(Cl)cc4)no3)[nH]c2c1 | inconclusive: 28.2 µM [inhibitor, single point] | – |
| COc1cccc(-c2cnc3c(NC=O)cc(-c4cc(C)c(O)c(C)c4)cn23)c1 | inconclusive: 11.2 µM [inhibitor, partial curve, poor fit] | – |
| CCOc1ccc(NC(=O)Cn2nnc(C(=O)NCc3ccc(OC)cc3)c2N)cc1 | inconclusive: 7.08 µM [inhibitor, partial curve, poor fit] | – |
| NCCc1c(-c2ccccc2)n(-c2ccccc2)c2ccccc12 | active: 28.2 µM | – |
| COC(=O)C1=C(C)N(c2ccc(Cl)cc2)/C(=C/c2ccc(O)cc2)C1=O | – | inactive: -10.3% |
| CCN(CC)CCCNc1nc(-c2ccccc2)nc2ccccc12 | inconclusive: 39.8 µM [inhibitor, single point] | – |
| COC(=O)CSc1nnc(CSc2nc(C)cc(C)n2)o1 | inconclusive: 1.68 µM [inhibitor, single point] | – |
| CCOc1ccc(CC(=NCCc2ccccc2)C2=C(O)CC(C)(C)CC2=O)cc1OCC | – | inactive: -9.99% |
| O=C(NCc1ccccc1F)C(=O)NCC(c1ccc2c(c1)OCO2)N1CCOCC1 (stereo unspecified) | – | inactive: 13% |
| CC(C)(C)c1cc(CCC(=O)NNC(=O)c2ccco2)cc(C(C)(C)C)c1O | inconclusive: 8.91 µM [inhibitor, single point] | – |
| Nc1ncn([C@@H]2O[C@H](CO)[C@@H](O)[C@H]2O)c(=O)n1 | active: 6.31 µM and inconclusive: 4.47 µM [inhibitor, partial curve] | – |
| CCN1C(=O)[C@@H]2[C@@H](c3ccc(-c4ccc(C(C)=O)cc4)c(OC)c3)N3CCCC[C@@]3(C(=O)OC)[C@@H]2C1=O | – | inactive: 0.126% |

| SMILES | Potency | activity change, negative = inhibition |
| --- | --- | --- |
| CC(=O)N1CCc2c(sc3c2c(=O)n(-c2ccccc2)c(=O)n3CC(=O)Nc2cc(C)cc(C)c2)C1 | inconclusive: 7.94 µM [inhibitor, full curve, poor fit] | – |
| CC[n+]1c(/C=C2\Sc3ccccc3N2C)ccc2cccc(C)c21 | inconclusive: 4.23 µM [inhibitor, full curve, poor fit] | – |
| COc1cccc(CCN2CCC(CNS(=O)(=O)c3cc(-c4cc(C)no4)ccc3OC)CC2)c1 | inconclusive: 4.47 µM [inhibitor, partial curve, poor fit] | – |
| CCCCN(CCCC)C1=Nc2ccccc2N/C1=C(/C#N)C(=O)OCC | inconclusive: 31.6 µM [inhibitor, partial curve, poor fit] | – |
| COc1ccc(NS(=O)(=O)c2ccc(N3CCN(CCO)CC3)c([N+](=O)[O-])c2)cc1 | inconclusive: 3.98 µM [inhibitor, single point] | – |
| FC(F)(F)c1ccccc1Cc1c(C2CCCCC2)nc2ccc(Cl)cn12 | inconclusive: 22.4 µM [inhibitor, single point] | – |
| Cc1ccc(-c2nn(CC(=O)NCc3cc(-c4nn(C)c(=O)c5ccccc45)ccc3C)c(=O)c3ccccc23)cc1 | active: 11.2 µM | – |
| Cc1c(C(=O)NCc2ccc(C(C)C)cc2)sc(=O)n1Cc1cccc(F)c1 | – | inactive: 7.84% |
| O=CNc1ccc2c(c1)Cc1cc([N+](=O)[O-])ccc1-2 | – | inactive: 1.34% |
| Nc1ccc(-n2c(N)c(C(=O)NCc3ccc4c(c3)OCO4)c3nc4ccccc4nc32)cc1 | inconclusive: 20 µM [inhibitor, partial curve, poor fit] | – |
| CCN(CC)c1ccc(S(=O)(=O)N2CCOCC2)cc1NC(=O)CNCc1cccc(Cl)c1 | inconclusive: 22.4 µM [inhibitor, single point] | – |
| O=C(O)Cc1ccc2c(c1)C(=O)c1ccccc1CO2 | – | inactive: 10.8% |
| Cn1c(=O)c2[nH]c(Cc3ccsc3)nc2n(C)c1=O | – | inactive: 6.92% |
| O=S(=O)(NC1CC(NS(=O)(=O)OCC(Cl)(Cl)Cl)C2CCCCC12)OCC(Cl)(Cl)Cl (stereo unspecified) | inconclusive: 31.6 µM [inhibitor, single point] | – |
| OCCCNc1cc(-c2ccnc(Nc3cccc(Cl)c3)n2)ccn1 | active: 193 nM and active: 158 nM | – |
| Cc1ccc(CNC(=O)Cn2nnc(C(=O)Nc3cc(C)ccc3C)c2N)cc1 | inconclusive: 39.8 µM [inhibitor, partial curve, poor fit] | – |
| COc1ccc(C(=O)N2CCN(C(=O)c3ccc(-c4ccccc4)cc3)CC2)cc1OC | – | inactive: -26.5% |
| COc1ccc2[nH]c3c(c2c1)CCN1C(=O)C(CC(=O)NCCC2=CCCCC2)C[C@H](C(=O)N2CCOCC2)[C@@]31CCC1CCCC1 (stereo partly specified) | – | inactive: 0.181% |
| CSc1nc2ccc(NC(=O)c3ccccn3)cc2s1 | inconclusive: 39.8 µM [inhibitor, single point] | – |
| COc1cc(NC(=O)c2cc(-c3cc(F)ccc3OC(C)C)n[nH]2)cc(OC)c1OC | inconclusive: 39.8 µM [inhibitor, single point] | – |
| O=c1[nH]c(CN2CCN(C/C=C/c3ccccc3)CC2)nc2ccccc12 | – | inactive: -5.98% |
| O=C(CN1CCN(c2ncc(C(F)(F)F)cc2Cl)CC1)N1CCN(c2ncc(C(F)(F)F)cc2Cl)CC1 | – | inactive: -28.4% |

| SMILES | Potency | activity change, negative = inhibition |
| --- | --- | --- |
| CCOC(=O)C1=C(C)N(CC)C(=S)NC1c1ccccc1OC(F)F (stereo unspecified) | inconclusive: 1.68 µM [inhibitor, full curve, poor fit] | – |
| CCCCCn1c(N(C)Cc2ccccc2)nc2c1c(=O)[nH]c(=O)n2C | inconclusive: 25.1 µM [inhibitor, partial curve, poor fit] | – |
| O=C(N/N=C/c1cc([N+](=O)[O-])ccc1O)C1CCCCC1 | inconclusive: 31.6 µM [inhibitor, single point] | – |
| O=C1N/C(=C\c2ccc(N3CCOCC3)c(F)c2)C(=O)N1Cc1ccccc1 | inconclusive: 17.8 µM [inhibitor, partial curve] | – |
| CN(C)CCOc1ccc(-c2c(-c3ccccc3)sc3ccccc23)cc1 | active: 20 µM | – |
| COc1ccccc1C(CNC(=O)c1cccc(S(=O)(=O)N2c3ccccc3CC2C)c1)N(C)C (stereo unspecified) | – | inactive: -18.2% |
| CN(C)c1cc[n+](CC(=O)Nc2ccc(Oc3ccccc3)cc2)cc1 | inconclusive: 12.6 µM [inhibitor, partial curve, poor fit] | – |
| CCc1ccccc1S(=O)(=O)Cc1ccc(C(=O)NCCc2ccc(Cl)cc2)o1 | inconclusive: 25.1 µM [inhibitor, single point] | – |
| CCN(CC)c1ccc(NC(=O)c2ccc(S(=O)(=O)N3CCOCC3)cc2)cc1 | – | inactive: -3.44% |
| COCCn1cnc2c(c1=O)c1nc3ccccc3nc1n2/N=C/c1ccco1 | inconclusive: 1.5 µM [inhibitor, partial curve, poor fit] | – |
| COc1ccc(CNC(=O)c2c(O)c3cccc4c3n(c2=O)CCC4)cc1 | inconclusive: 39.8 µM [inhibitor, partial curve, poor fit] | – |
| CC1(c2ccc(OCC#N)cc2)C=C(c2ccc(OCC#N)cc2)n2nc(C(F)(F)F)nc2N1 (stereo unspecified) | inconclusive: 28.2 µM [inhibitor, single point] | – |
| O=C(O)CCN1Cc2ccccc2C1=O | – | inactive: -1.35% |
| CC(C)(C)Cn1c(N)nc2ccc(-c3[nH]c(C(C)(C)C)nc3-c3ccc(F)cc3)nc21 | active: 27.3 µM | – |
| NNS(=O)(=O)c1ccc(Sc2ccccn2)c([N+](=O)[O-])c1 | – | inactive: -12% |
| CCCc1nnc(SCc2cc(=O)c3c(C)cc(C)cc3[nH]2)n1C | – | inactive: 2.07% |
| CN(C(=O)c1coc(=O)c2ccccc12)c1ccc(Br)cc1 | – | inactive: -6.45% |
| COc1ccc(NC(=O)c2ccc(NC(=O)CCS(=O)(=O)c3cccs3)cc2)cc1Cl | inconclusive: 39.8 µM [inhibitor, single point] | – |
| CCc1ccc(NC(=O)c2cnn3ccccc23)cc1 | inconclusive: 12.6 µM [inhibitor, single point] | – |
| COc1ccccc1C(=O)NNC(=O)c1cccc(F)c1 | inconclusive: 37.7 µM [inhibitor, single point] | – |
| O=C(Nc1nc2cc(Cl)ccc2s1)C1CCCN(S(=O)(=O)c2cccc3cccnc23)C1 (stereo unspecified) | active: 17.8 µM | – |
| COc1ccc(C)cc1S(=O)(=O)N1CCCC(C(=O)N2CCN(c3ccccc3)CC2)C1 (stereo unspecified) | inconclusive: 28.2 µM [inhibitor, partial curve, poor fit] | – |
